PubChem BioAssay AID1460 (National Center for Advancing Translational Sciences (NCATS), 2008)
The whole screen tested about 270,000 compounds, of which about 5,800 (2.1%) were called active. Inconclusive results, whose numbers are uncertain, are shown with a selection of clear calls. Calls come from the whole dose curve; as a rule, active = well fitted inhibition curve with a large enough effect; inconclusive = small, poorly fitted or top-dose-only effect; inactive = flat fitted curve, though single readings scatter. A potency beside an inconclusive call is a rough fit, not a confirmed value.

biological target: Microtubule-associated protein tau (Homo sapiens) (UniProt P10636); assay: qHTS for Inhibitors of Tau Fibril Formation, Thioflavin T Binding; conditions: recombinant tau K18 P301L (four-repeat tau fragment), heparin-induced fibrillization, ThT fluorescence; series mostly up to 57.4 µM; activity, negative = inhibition: at the top concentration; note: nearly all actives have a fitted effect of over 55% in size
How it was run: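 Heparin-induced fibrillization of the P301L-mutant K18 repeat-domain fragment of human tau was followed by ThT binding in quantitative high-throughput format.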
% is set by controls: 0 for no effect and ±100 for the full control effect; potency is the fitted concentration of half-maximal effect; tags give direction and shape of the fitted curve.

Chain of UniProt P10636 (P10636 whole entry, looked up, the tested form may be a part): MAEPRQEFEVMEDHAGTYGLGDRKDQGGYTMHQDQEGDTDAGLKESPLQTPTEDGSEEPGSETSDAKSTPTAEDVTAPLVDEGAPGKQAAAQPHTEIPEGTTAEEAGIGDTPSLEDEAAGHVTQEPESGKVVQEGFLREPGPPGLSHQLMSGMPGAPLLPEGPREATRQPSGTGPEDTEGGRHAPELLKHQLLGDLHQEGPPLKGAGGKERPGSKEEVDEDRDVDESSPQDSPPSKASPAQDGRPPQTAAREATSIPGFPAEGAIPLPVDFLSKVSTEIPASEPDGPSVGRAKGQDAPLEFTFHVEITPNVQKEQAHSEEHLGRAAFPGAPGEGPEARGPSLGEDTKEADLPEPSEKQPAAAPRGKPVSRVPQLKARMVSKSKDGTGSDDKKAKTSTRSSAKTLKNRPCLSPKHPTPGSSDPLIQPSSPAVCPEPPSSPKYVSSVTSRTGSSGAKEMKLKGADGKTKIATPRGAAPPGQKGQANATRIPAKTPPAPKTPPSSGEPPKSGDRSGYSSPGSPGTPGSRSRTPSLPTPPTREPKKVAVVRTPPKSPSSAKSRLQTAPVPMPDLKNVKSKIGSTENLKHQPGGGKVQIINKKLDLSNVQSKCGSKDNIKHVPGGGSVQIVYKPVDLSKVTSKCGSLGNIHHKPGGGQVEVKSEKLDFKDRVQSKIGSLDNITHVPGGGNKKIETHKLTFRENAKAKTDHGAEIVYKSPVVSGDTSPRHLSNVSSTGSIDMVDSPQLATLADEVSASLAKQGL

| Structure (SMILES) | Potency | activity, negative = inhibition |
| --- | --- | --- |
| COc1cc2nc3c(c([Si](C)(C)C(C)(C)C)c2cc1OC)Cn1c-3cccc1=O | inconclusive: 39.8 µM [inhibitor, single point] | – |
| Cc1cccc(/C=N/Nc2cc(N3CCOCC3)nc(N3CCOCC3)n2)c1 | inconclusive: 15.8 µM [inhibitor, partial curve] | – |
| CC1(CCc2ccccc2)NC(=S)N(c2ccc(Cl)cc2)N1 (centres undefined) | inconclusive: 17.8 µM [inhibitor, partial curve] | – |
| CCCNC(=O)c1csc2c1CCCCC2 | – | inactive: -2.51% |
| O=C(/C=C/c1ccc2c(c1)OCO2)Nc1nc(-c2ccc(F)cc2)cs1 | inconclusive: 2.24 µM [inhibitor, partial curve] | – |
| Cc1ccc(-c2csc(NC(=O)/C=C/c3ccco3)c2C(=O)O)cc1 | inconclusive: 22.4 µM [inhibitor, partial curve] | – |
| O=C(c1cc2nc(-c3ccco3)cc(C(F)(F)F)n2n1)N1CCN(Cc2ccccc2)CC1 | inconclusive: 44.7 µM [inhibitor, single point] | – |
| Cc1ccc(OCC(=O)NC(=S)Nc2ccc3c4c(cccc24)CC3)cc1 | inconclusive: 3.98 µM [inhibitor, partial curve] | – |
| CCOc1ccc(C2C(C(=O)Nc3ccc(F)cc3)=C(C)Nc3nc(CCCO)nn32)cc1 (centres undefined) | inconclusive: 11.2 µM [inhibitor, partial curve] | – |
| Cc1cc(C)n(-c2nnc(Nc3ccc(C(C)C)cc3)c3ccccc23)n1 | inconclusive: 12.6 µM [inhibitor, single point] | – |
| CCOc1ccc(C(=O)NC(=S)Nc2ccccc2OC)cc1[N+](=O)[O-] | – | inactive: -0.874% |
| O=C(COc1ccc(-c2ccccc2)cc1)N/N=C/c1ccccc1Br | inconclusive: 2.51 µM [inhibitor, full curve] | – |
| Cc1snc(SCC(=O)c2ccc([N+](=O)[O-])cc2)c1C#N | active: 14.1 µM | – |
| O=C(CCCC1=NS(=O)(=O)c2ccccc2N1)N1CCN(c2ccccc2)CC1 | inconclusive: 31.6 µM [inhibitor, single point] | – |
| CC(C)(C)C1CCc2c(sc(N)c2C(N)=O)C1 (centres undefined) | inconclusive: 28.2 µM [inhibitor, partial curve] | – |
| COc1ccc(C(=O)C2CCCN(C(=O)CCc3ccccn3)C2)c(C)c1 (centres undefined) | – | inactive: -4.89% |
| CC(NC(=O)C1CCN(C(=O)N2CCOc3ccc(Cl)cc32)CC1)c1ccccc1 (centres undefined) | inconclusive: 17.8 µM [inhibitor, partial curve] | – |
| CCC(=O)OCc1cnc(C)c2oc(=O)c(C(=O)Nc3ccc(CC)cc3)cc12 | inconclusive: 0.562 µM [inhibitor, single point] | – |
| Cc1ccc(-n2nc3ccc(NC(=O)/C=C/c4ccco4)cc3n2)cc1C | inconclusive: 1.58 µM [inhibitor, partial curve] | – |
| O=C(O)c1ccc(S(=O)(=O)c2ccc3c(c2)C(=O)N(Cc2ccco2)C3=O)cc1 | – | inactive: 3% |
| Cc1oc2cc(O)ccc2c(=O)c1-c1cnn(-c2ccccc2)c1 | inconclusive: 3.55 µM [inhibitor, full curve, poor fit] | – |
| Cc1cc(C(=O)Cn2nc(C(=O)O)c3ccccc3c2=O)c(C)n1-c1ccccc1 | inconclusive: 25.1 µM [inhibitor, single point] | – |
| COc1ccc(S(=O)(=O)n2nc(OC(=O)c3cccs3)cc2N)cc1 | inconclusive: 14.1 µM [inhibitor, partial curve] | – |

| Structure (SMILES) | Potency | activity, negative = inhibition |
| --- | --- | --- |
| Cc1ccc2c(CC(=O)Nc3c(C(=O)c4ccc(F)cc4)oc4ccccc34)coc2c1 | – | inactive: -1.89% |
| Cc1ccccc1OC1C=CC(C#Cc2ccc(Br)cc2)OC1CO (centres undefined) | – | inactive: -7.96% [at 11.5 µM] |
| COc1ccc(C(=S)Nc2ccc(N(C)C)cc2)cc1 | inconclusive: 2.51 µM [inhibitor, full curve] | – |
| CCOC(=O)CSc1nc(C)cc(C)c1C#N | – | inactive: -14.2% |
| Cc1nc2ncccn2c1-c1csc(Nc2ccc(O)cc2)n1 | active: 10 µM | – |
| Cc1ccc(C(=O)NC(=S)Nc2cccc3nsnc23)cc1 | active: 12.6 µM | – |
| COc1ccc(N(C(=O)c2cccc([N+](=O)[O-])c2)S(=O)(=O)c2ccc3c(c2)n(C)c(=O)n3C)cc1 | inconclusive: 15.8 µM [inhibitor, partial curve] | – |
| COc1cc(C)c(NC(=O)C(=S)NCCc2ccccc2)cc1C | inconclusive: 20 µM [inhibitor, partial curve] | – |
| O=C(CSCC(=O)Nc1nc(-c2ccc3c(c2)OCO3)cs1)Nc1nccs1 | inconclusive: 28.2 µM [inhibitor, single point] | – |
| CCOc1ccc(Cc2c(Cl)nc(SC)nc2OC)cc1 | inconclusive: 28.2 µM [inhibitor, single point] | – |
| CCOC(=O)c1[nH]c(C)c(CCC(=O)NCc2ccc(C)cc2)c1C | – | inactive: -5.09% |
| CCOc1ccc(-c2cnc(N)n2C)cc1 | inconclusive: 31.6 µM [inhibitor, partial curve] | – |
| Cc1oc(=O)c(NC(=O)c2ccccc2)cc1C(=O)c1ccccc1 | active: 25.1 µM | – |
| Nc1nc(-c2ccc(Cl)cc2)c(N=Nc2ccc(S(=O)(=O)N3CCOCC3)cc2)s1 | active: 14.1 µM | – |
| CCOc1ccc2oc(=O)cc(CN3CCN(C(=O)c4cccc(F)c4)CC3)c2c1 | inconclusive: 20 µM [inhibitor, single point] | – |
| COc1cc(C(c2sc3nc(C)nn3c2O)N2CCc3ccccc3C2)cc(OC)c1OC (centres undefined) | inconclusive: 44.7 µM [inhibitor, single point] | – |
| CCCc1cc(-c2nc(-c3ccc(C)cc3)cs2)ccn1 | inconclusive: 5.01 µM [inhibitor, full curve] | – |
| N/C(=N\OC(=O)COc1ccc(Cl)cc1Cl)c1ccncc1 | inconclusive: 3.16 µM [inhibitor, partial curve, poor fit] | – |
| CCn1c2ccccc2c2nnc(NN)nc21 | active: 14.1 µM | – |
| Cc1nnc(Nc2ccc(O)cc2)[nH]c1=O | inconclusive: 17.8 µM [inhibitor, single point] | – |
| Cc1ccc(C)c(N2CCN(C(=O)c3cc4cc5ccc(C)cc5nc4s3)CC2)c1 | – | inactive: -2.23% |
| CC(OC(=O)C1=Cc2ccccc2OC1)C(=O)NC1CCCC1 (centres undefined) | – | inactive: -20.2% |
| CCOC(=O)c1cccc(NC(=O)CCS(=O)(=O)c2cccs2)c1 | – | inactive: -6.25% |

| Structure (SMILES) | Potency | activity, negative = inhibition |
| --- | --- | --- |
| CCc1nnc(NC(=O)c2cc(-c3ccccc3)nn2-c2ccccc2)s1 | – | inactive: -19.2% |
| O=C(CSc1ccc(-c2ccco2)nn1)NCCc1ccccc1 | inconclusive: 20 µM [inhibitor, single point] | – |
| COC/C=C/C1=CC2=CC(=O)C(C)(OC(=O)c3ccc(Cl)nc3)C(=O)C2=CO1 (centres undefined) | inconclusive: 6.31 µM [inhibitor, full curve] | – |
| CCn1c(SCC(=O)N2CCCc3ccccc32)nc2ccccc2c1=O | inconclusive: 44.7 µM [inhibitor, single point] | – |
| Cc1cccc(/C=C/C(=O)c2ccc(N3CCOCC3)cc2)c1 | inconclusive: 15.8 µM [inhibitor, partial curve] | – |
| Cc1ccccc1C(=O)N1CCN(c2ccc(NC(=O)c3cccnc3Cl)cc2)CC1 | inconclusive: 15.8 µM [inhibitor, single point] | – |
| Cc1ccc(NC(=O)COc2ccc(/C=C3/SC(=Nc4ccccc4)N(Cc4cccnc4)C3=O)cc2)cc1 | inconclusive: 17.8 µM [inhibitor, partial curve] | – |
| COc1ccc(N2CCN(C(=O)c3ccc(NC(=O)c4nsc5ccccc45)cc3)CC2)cc1 | inconclusive: 5.01 µM [inhibitor, partial curve] | – |
| S=C(NCc1ccco1)Nc1ccccn1 | – | inactive: -3.1% |
| Cc1ccc(S(=O)(=O)NC(CC(C)C)C(=O)Oc2ccc3c4c(c(=O)oc3c2)CCC4)cc1 (centres undefined) | inconclusive: 12.6 µM [inhibitor, single point] | – |
| O=C(NC(C(=O)c1ccccc1)N1CCOCC1)c1ccccc1 (centres undefined) | inconclusive: 31.6 µM [inhibitor, partial curve] | – |
| O=C(CSc1nnc2n(C3CCCC3)c(=O)c3ccccc3n12)N1CCCCCC1 | inconclusive: 44.7 µM [inhibitor, single point] | – |
| C/C(N)=C(/C#N)C(=O)CSc1nnc(-c2ccc3c(c2)OCO3)o1 | inconclusive: 6.31 µM [inhibitor, full curve] | – |
| COc1ccc(C(=O)CC(Nc2ccc([N+](=O)[O-])cc2)c2ccc(OC)cc2)cc1 (centres undefined) | – | inactive: -20.3% |
| COc1ccc(CN(C)c2ncnc(N)n2)cc1 | – | inactive: -6.58% |
| N#Cc1ccc(C23CC4(C2)[C@H](CN(CC2CCCCC2)[C@@H]4c2ccccc2)C3c2ccc(C(F)(F)F)cc2)cc1 (some centres undefined) | inconclusive: 39.8 µM [inhibitor, single point] | – |
| CNC(=S)N/N=C(\C)c1ccc(N2CCOCC2)cc1 | inconclusive: 14.1 µM [inhibitor, partial curve] | – |
| O=C(NC(NC(=S)Nc1ccccc1C(=O)O)C(Cl)(Cl)Cl)c1cccc([N+](=O)[O-])c1 (centres undefined) | inconclusive: 25.1 µM [inhibitor, single point] | – |
| Cc1ccc(NC2c3ncccc3C(=O)N2Cc2cccs2)cc1 (centres undefined) | – | inactive: 2.49% |
| Cc1cc(C(=O)N/N=C\c2ccc(COc3ccc([N+](=O)[O-])cc3)o2)ccc1[N+](=O)[O-] | inconclusive: 1.41 µM [inhibitor, full curve] | – |
| O=C(O)c1cccc(NC2=C(N3CCOCC3)C(=O)c3ccccc3C2=O)c1 | active: 31.6 µM | – |
| CC1CCN(C(=O)CSc2nc3c([nH]c4ccccc43)c(=O)n2-c2ccccc2)CC1 | – | inactive: 7.87% |
| CCCC(C(=O)O)N1C(=O)/C(=C2\C(=O)N(C)c3ccccc32)SC1=S (centres undefined) | inconclusive: 15.8 µM [inhibitor, partial curve] | – |
